From the RNAGym collection of RNA variant scans (doi:10.7554/elife.90254) come the findings set out here.

The source gives no read counts; variants with many changes may rest on few reads.

B1: LINE1-full (parent)
chain: UACGUAGGUGGUUUUCCCCUGAUAGUGCUAAGGGGGCCUGGAAGUUUGGACUGGGCAGAGCUCAACACAGCGUGGCAAAGUGGCUGUGGCUAGACUGCCUCUCUGGAUUCCUCGUCACUCAGCAGGGCAUCUCUGAGAGAAAUGCC

The variants in this series derive from B1. As to the kind of experiment: self-cleavage, relative activity (ratio to wild type); higher = more cleavage; in vitro, sequencing; the parent is a self-cleaving ribozyme.
For the variant A57U U73G U104A, the self-cleavage is 0.02.
Regarding A57U U115C A141G, the self-cleavage was found to be 0.07.
Consider U52C U91C A136G A140G, for which the self-cleavage was determined as 0.33.
Take A57U U62C G106A: the self-cleavage was 0.03.
For A57G A107G G144A, the self-cleavage is 1.18.
For the variant G53A C84U A121G, the self-cleavage stood at 0.13.
For C56U U104G U130C A136G, the self-cleavage is 0.17.
For A57U A64U U112C A140G the value was 0.05; for A57G A67U U109C, 0.15.
For A57U U108C A141G the value was 0.14; for U52C A57G U81C, 0; for G53U U112C U134C A142G, 1.06.
As to A57U A65C U134A, the self-cleavage came to 0.03.
Consider U52C A94G G114C A121U, for which the self-cleavage is 0.29.
A57C G82A U100C: the self-cleavage was found to be 0.07.
For A57G U85A A141G A142U the value was 0.07.
In the case of A57U A59G A92G, the self-cleavage stood at 0.16.
Turning to A57U U73C U132G, the self-cleavage is 0.
As for G58A A65G A67G C84U A140U, the self-cleavage stood at 0.02.
G55A A69G U73A A138U: the self-cleavage was 0.05.
For A57U A77G U100A the value was 0.
As to G53U C95G A107G U134C, the self-cleavage was determined as 0.05.
Regarding U52C A77G U132C, the self-cleavage came to 1.91.
Next, U52C A57C U85C G105A U115C: 0; A57G G58A A140G: 0.09; G53U U109C U134C: 1.
As to C51U A69G U100C A138G, the self-cleavage was found to be 0.
Next, A57U U73C U91C: 0.
Take C51U U100C U104G: the self-cleavage came to 1.15.
With U52C U87A U102C A142G, the self-cleavage stood at 0.08.
A57C U108C U132C: the self-cleavage was determined as 0.
For U52C A57U A77G, the self-cleavage was found to be 0.
For G53A U85A C99U U130C the value was 0.03.
In the case of G53A A64G A141G, the self-cleavage stood at 0.2.
As for U52C C63U U119C A141G, the self-cleavage came out at 0.27.
Consider C51U U62C G74A, for which the self-cleavage came out at 0.04.
As to A57G C66U C145U, the self-cleavage worked out at 0.02.
Regarding G53A U81A U108C G114A, the self-cleavage was determined as 2.14.
For U52C C76A A141U the value was 1.45.
Turning to G54A U115C U119C A141G, the self-cleavage came out at 1.93.
Turning to A57G U62C U130C U134C, the self-cleavage was found to be 0.
Consider U52A U104C U143C, for which the self-cleavage worked out at 2.13.
In the case of U52C U73G G74U A129G A140G, the self-cleavage is 1.62.
Next, U52C A79G A129G: 2.45.
For A57G A64G C98A the value was 0.11; for U52C A117U U132G A138G, 0.51; for A57G U119C A142G, 2.15.
Consider G55A A79G A117U, for which the self-cleavage came out at 0.47.
As for A57G G83A U104C, the self-cleavage stood at 0.54.
For the variant A50U U91C C146U, the self-cleavage is 0.41.
Take G55A A57C U143C: the self-cleavage amounted to 0.09.
For U52C U134A A140G, the self-cleavage turned out to be 0.47.
Next, C51U A57G A77G: 0.76.
Regarding C51U A65G U104A, the self-cleavage is 0.06.
For U52A C61U U102C G114A A121G, the self-cleavage came to 0.02.
In the case of A57U A67G U119C, the self-cleavage came out at 0.
G53A U87C U108C U130A: the self-cleavage is 0.
For G53U C56U G125A the value was 0.18.
As for A57C C63U U91C, the self-cleavage came to 0.02.
U52A U100C A142G: the self-cleavage amounted to 1.96.
On to C51G C99U A138U, for which the self-cleavage amounted to 1.43.
For C51A C56U A129U the value was 0.42; for C51U A78G U85A U87C A94G U134C A141G, 0.07.
With A50U U87C C90U, the self-cleavage was found to be 0.05.
For the variant U52A A78G A141G, the self-cleavage amounted to 2.02.
As for A57U A65G U73A A121G A138G, the self-cleavage was 0.
As to A57U U91A U104C A140G, the self-cleavage came to 0.05.
Turning to A57U A59G U132G, the self-cleavage turned out to be 0.
As to U52C C71U A77G G86A, the self-cleavage was determined as 0.04.
Consider G54A U108A C118A, for which the self-cleavage was 0.24.
Next, U52C A64U U81G A94U: 0.21; U52G A140G U143C: 0.5.
Take C51U U52C A65U: the self-cleavage turned out to be 0.23.
On to A57U U81A U112C, for which the self-cleavage was determined as 0.12.
Take U52A A77G C116U: the self-cleavage amounted to 1.39.
On to U52A U104C U108C, for which the self-cleavage was determined as 1.15.
As to A57U G89U U130C G137U, the self-cleavage stood at 0.03.
Take A57U A136G A140G: the self-cleavage came to 0.34.
Next, A57G A59G A138G: 0.17.
For the variant A57G C84G A138G, the self-cleavage turned out to be 0.03.
Next, A57U A59G C84U A117G: 0.09.
For A57U A79G A129G, the self-cleavage was 0.09.
Next, U52A A67U A77C U132C: 0.07; A57G U62C U112A: 0.04; A57G C111U A141G A142G: 0.77.
Next, A50U U81A A136G: 2.15; A57G A136G A140G: 0.76.
For the variant U52A U130A A138G, the self-cleavage is 0.88.
With A57U A77U A138G, the self-cleavage was found to be 0.34.
Take A57G U73C A136U A142G: the self-cleavage came out at 1.84.
Take C56U U85C A117C A136G: the self-cleavage was 0.06.
As for G53A U96A C98U, the self-cleavage amounted to 0.03.
Turning to A57G A59G G80A, the self-cleavage amounted to 0.04.
For G53U U100C U104A A140G U143C, the self-cleavage is 0.61.
Next, A50U U87A U108A U109C U115A: 0; U52A A57G A67G G83A U115C A142G: 0.33; U52C C56U A92G: 0.03.
For A57U C101U A141G the value was 0.19.
With A57U G60A U87A C116U A117G A124G U143A, the self-cleavage came out at 0.01.
On to C51U U52C A64U, for which the self-cleavage is 0.54.
Next, C56U A117G U119C A138U: 0.19; U52G A77U A78G: 1.9.
Turning to A57G U87C A117U U130C, the self-cleavage stood at 0.
For G53A A65G U134C, the self-cleavage was determined as 0.05.
Consider A57G U109A C116A A117G A142G, for which the self-cleavage is 0.25.
With G54U U87A U100C, the self-cleavage was determined as 0.08.
In the case of G58A A77U U134C, the self-cleavage was determined as 0.06.
With U52C G74A U85C C113A A136G, the self-cleavage came out at 0.03.
As to A57G A136G A142G, the self-cleavage was 1.46.
For the variant U52C A65U U85A, the self-cleavage was 0.06.
As to A57G G58A A67G, the self-cleavage is 0.09.
With A57G U130C U134A, the self-cleavage was 0.
Take G55U A94G A138G U143A: the self-cleavage is 0.1.
For the variant U52A A69U U73C G75U G106A G126A A129G, the self-cleavage worked out at 0.06.
For U52A A117G A141G, the self-cleavage worked out at 1.74.
Next, U52G A121U U132C A138G: 1.13; A57G A69U A136U: 0.08; U52C U85C A129G: 0.
For A57G U108C A136U G137A the value was 0.3.
In the case of U52C A64G U102C, the self-cleavage amounted to 0.23.
Next, A57G G86A U96A U115C G127A: 0.
As to A57G U102C A129G, the self-cleavage was 0.72.
As for G53U A129U A138G A142G, the self-cleavage is 1.19.
Regarding G54A G127A A138G A141G, the self-cleavage came to 0.78.
For the variant G53A G58A A129G A140G, the self-cleavage was found to be 0.02.
As for U52C G97A U112A, the self-cleavage was found to be 0.05.
A57U U85C U132C: the self-cleavage was 0.1.
With U52C U102C A136G, the self-cleavage worked out at 1.46.
For the variant C56A U104C U134C, the self-cleavage was found to be 0.
U52C G80A U96C U115C: the self-cleavage worked out at 0.11.
As for A57C G58A U62A A78U, the self-cleavage stood at 0.04.
A57G A59G G72A A92G G114A: the self-cleavage was 0.07.
Turning to A57U G58U U132A, the self-cleavage worked out at 0.03.
For U52A U96C U102C A129G A142G the value was 0.71; for A57G U85C U100C, 0.84; for A57G U96C A138G, 0.
As for A57C U73A A79U U102C U143C, the self-cleavage turned out to be 0.05.
Regarding A57G C131U U143C, the self-cleavage amounted to 0.77.
Next, A57U A67G G144A: 0.11; G53A A92G A142G: 0.11.
With A57U A65G U104A U143A, the self-cleavage was 0.
For A57G A141G A142G, the self-cleavage is 1.75.
Next, A57U A79G C113U: 0.05.
Regarding G55C A79G G126U, the self-cleavage was determined as 0.11.
As for A57U U112C A141G, the self-cleavage came to 0.
With A57G U81A C128U, the self-cleavage is 1.21.
For A57U A92G U100C A138G, the self-cleavage stood at 0.13.
Turning to A57G A78U C90U, the self-cleavage amounted to 0.03.
Take G55A A59G A129G: the self-cleavage came to 0.04.
Consider C51A U85C C131U, for which the self-cleavage came out at 0.17.
U52A G53U A142G: the self-cleavage stood at 1.29.
For the variant U52C U109A C120A, the self-cleavage was found to be 0.97.
In the case of A50U G53A A77U, the self-cleavage amounted to 0.35.
Next, U52C G53A A59G A64G A129G U134A A136U: 0.77.
Regarding U52C A67G A129U, the self-cleavage is 0.32.
As to U52C A117G A121U, the self-cleavage was 1.15.
With U52A C103U U104C, the self-cleavage came out at 1.27.
For A57U G60U A107G U115A A129G the value was 0.02; for U52A U91A A92G, 0.23; for A57G A78G A138G A141G, 0.74.
In the case of A50U U62C A67G A92U, the self-cleavage turned out to be 0.
Consider A57G C76U U130C, for which the self-cleavage is 1.8.
For the variant U52A A67U G70C U100C A140U A142G, the self-cleavage was 0.
In the case of G54U A79G U108G U132A, the self-cleavage is 0.55.
On to A57G A78G C113U, for which the self-cleavage was 0.48.
For U52A A59U U115C the value was 0.62.
Next, U52A A77U U132C A138G: 2.09.
